The list shows a part of the results. Sequences were assembled here from the parent chain. Inactive controls read about 0.05.
B1: TEV protease; numbered along this chain (parent)
chain: MGESLFKGPRDYNPISSSICHLTNESDGHTTSLYGIGFGPFIITNKHLFRRNNGTLVVQSLHGVFKVKDTTTLQQHLVDGRDMIIIRMPKDFPPFPQKLKFREPQREERICLVTTNFQTKSMSSMVSDTSCTFPSGDGIFWKHWIQTKDGQCGSPLVSTRDGFIVGIHSASNFTNTNNYFTSVPKNFMELLTNQEAQQWVSGWRLNADSVLWGGHKVFMVKPEEPFQPVKEATQL

Variants of: B1
Assay: raw area under fraction-flipped curve 0-4 h after induction (AUC4h, not background-subtracted), DNA-recorder readout of cleavage of the substrate (dimensionless); higher = more cleavage of the substrate by the protease variant
Conditions: temperature: 34 °C; time window: 0-4 h after rhamnose induction
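Further: Bxb1 expression induced with 0.2% (w/v) L-rhamnose at OD600 near 0.5, cultures sampled hourly, flipped fraction per protease–substrate barcode pair counted by paired-end Illumina sequencing.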

Row | Variant | area with substrate ENLYDQS | area with substrate ENLYEQS | area with substrate ENLYGQS | area with substrate ENLYHQS | area with substrate ENLYIQS | area with substrate ENLYKQS | area with substrate ENLYMQS | area with substrate ENLYPQS | area with substrate ENLYRQS | area with substrate ENLYTQS | area with substrate ENLYVQS | area with substrate ENLYWQS | area with substrate ENLYYQS | area with substrate ENLYLQS | area with substrate ENLYQQS | area with substrate ENLYNQS | area with substrate ENLYSQS
1 | MGESLFKGPRDYNPISSSICHLTNESDGHTTSLYGIGFGPFIITNKHLFRRNNGTLVVQSLHGVFKVKDTTTLQQHLVDGRDMIIIRMPKDFPPFPQYLKFREPQREERICLVTTNFQTKSMSSMVSDTSCTFPSGDGIFWKHWIQTKDGQCGSPLVSTRDGFIVGIHSASNFTNTNNYFTSVPKNFMELLTNQEAQQWVSGWRLNADSVLWGGHKVFMVKPEEPFQPVKEATQL [K98Y] | 0.06 | 0.0695 | 0.0531 | 0.0723 | 0.135 | 0.0562 | 0.093 | 0.0693 | 0.0554 | 0.085 | 0.109 | 0.0771 | 0.0615 | – | – | – | –
2 | MGESLFKGPRDYNPISSSICHLTNESDGHTTSLYGIGFGPFIITNKHLFRRNNGTLVVQSLHGVFKVKDTTTLQQHLVDGRDMIIIRMPKDFPPFPQKLKFREPQREERICLVTTNFQTKSMSSMVSDTSCTFPSGEGIFWKHWIQTKDGQCGSPLVSTRDGFIVGIHSASNFTNTNNYFTSVPKNFMELLTNQEAQQWVSGWRLNADSVLWGGHKVFMVKPEEPFQPVKEATQL [D137E] | 0.0511 | 0.108 | 0.0651 | 0.0767 | – | 0.0637 | 0.0749 | – | 0.077 | 0.0792 | 0.13 | – | – | 0.0921 | 0.0665 | – | –
3 | MGESLFKGPRDYNPISSSICHLTNESDGHTTSLYGIGFGPFIITNKHLFRRNNGTLVVQSLHGVFKVKDTTTLQQHLVDGRDMIIIRMPKDFPPFPQKLKFREPQREERIRLVTTNFQTKSMSSMVSDTSCTFPSGDGIFWKHWIQTKDGQCGSPLVSTRDGFIVGIHSASNFTNTNNYFTSVPKNFMELLTNQEAQQWVSGWRLNADSVLWGGHKVFMVKPEEPFQPVKEATQL [C111R] | 0.0522 | 0.0775 | – | – | 0.138 | 0.0891 | 0.0932 | – | 0.0601 | – | – | – | – | – | 0.0623 | 0.0864 | –
4 | MGESLFKGPRDYNPISSSICHLTNESDGHTTSLYGIGFGPFIITNKHLFRRNNGTLCVQSLHGVFKVKDTTTLQQHLVDGRDMIIIRMPKDFPPFPQKLKFREPQREERICLVTTNFQTKSMSSMVSDTSCTFPSGDGIFWKHWIQTKDGQCGSPLVSTRDGFIVGIHSASNFTNTNNYFTSVPKNFMELLTNQEAQQWVSGWRLNADSVLWGGHKVFMVKPEEPFQPVKEATQL [V57C] | 0.0559 | 0.0729 | 0.0588 | 0.0705 | 0.134 | 0.0447 | – | 0.0658 | 0.0609 | – | 0.122 | 0.0729 | 0.0657 | – | 0.0531 | 0.0683 | 0.0684
5 | MGESLFKGPRDYNPISSSICHLTNESDGHTTSLYGIGFGPFIITNKHLFRRNNGTLVVQSLHGVFKVKDTTTLQQHLVDGRDMIIIRMPKDFPPFPQKLKFREPQREERICLVTTNFQTKSMSSMVSDTSCTFPSGDGIFWKHWIQTKDGQCGSPLVSTRDGFIVGIHSASNFTNTNNYFTSVPKNFMELLTNQEAQQWVSGWRLNADSVLWGQHKVFMVKPEEPFQPVKEATQL [G214Q] | 0.0662 | – | – | – | – | – | – | 0.092 | 0.0624 | – | – | – | 0.047 | 0.0666 | – | – | 0.0553
6 | MGESLFKGPRDYNPISSSICHLTNESDGHTTSLYGIGFGPFIITNKHLFRRNNGTLVVQSLHGVFKVKDTTTLQQHLVDGRDMIIIRMPKDFPPFPQKLKFREPQREERICLVTTNFQTKSMSSMVSDTSCTFPSGDGIFWKHWIQTKDGQCGSPLVSTRDGFIVGIHSASNFTNTNNYFTSVPKNFMELLTNQEAQQWVSGWRLNADSVLWGGMKVFMVKPEEPFQPVKEATQL [H215M] | 0.0527 | 0.0599 | 0.0549 | 0.056 | – | 0.059 | – | 0.0599 | 0.0613 | – | 0.0803 | 0.0552 | 0.0545 | – | – | 0.0417 | –
7 | MGESLFKGPRDYNPISSSICHLTNESDGHTTSLYGIGFGPFIITNKHLFRRNNGTLVVQSLHGVFKVKDTTTLQQHLVDGRDMIIIRMPKDFPPFPQKLKFREPQRCERICLVTTNFQTKSMSSMVSDTSCTFPSGDGIFWKHWIQTKDGQCGSPLVSTRDGFIVGIHSASNFTNTNNYFTSVPKNFMELLTNQEAQQWVSGWRLNADSVLWGGHKVFMVKPEEPFQPVKEATQL [E107C] | 0.0564 | 0.0501 | 0.0739 | – | 0.105 | 0.0642 | – | – | – | – | – | 0.0569 | 0.0601 | – | – | – | 0.0786
8 | MGESLFKGPRDYNPISSSICHLTNESDGHTTSLYGIGFGPFIITNKHLFRRNNGTLVVQSLHGVFKVKDTTTLQQHLVDGRDMIIIRMPKDFPPFGQKLKFREPQREERICLVTTNFQTKSMSSMVSDTSCTFPSGDGIFWKHWIQTKDGQCGSPLVSTRDGFIVGIHSASNFTNTNNYFTSVPKNFMELLTNQEAQQWVSGWRLNADSVLWGGHKVFMVKPEEPFQPVKEATQL [P96G] | 0.0513 | 0.0643 | – | – | 0.126 | 0.051 | 0.0782 | 0.0732 | – | 0.0762 | 0.161 | – | – | – | – | 0.068 | 0.0707
9 | MGESLFKGPRDYNPISSSICHLTNESDGHTTSLYGIGFGPFIITNKHLFRRNNGTLVVQSLHGVFKVKDTTTLQQHLVDGRDMIIIRMPKDFPPFPQKLKFREPQREERICLVTTNFQTKSMSSMVSDTSCTFPSGDGIFWKHWIQTKDGQCGSPLVSTRDGFIVGIHSASNFTNTNNYFTSVPKCFMELLTNQEAQQWVSGWRLNADSVLWGGHKVFMVKPEEPFQPVKEATQL [N186C] | 0.0592 | 0.0883 | – | 0.0816 | 0.12 | 0.0253 | – | 0.0581 | – | – | – | 0.0523 | – | – | – | 0.0645 | –
10 | MGESLFKGPRDYNPISSSICHLTNESDGHTTSLYGIGFGPFIITNKHLFRRNNGTLVVQSLHGVFKVKDTTTLQQHLVDGRDMIIIRMPKDFPPFPQKLKFREPQREERICLVTTNFQTKSMSSMVSDTSCTFPSGDGIFWKHWIQTKDGQCGSPLVSTRDGFIVGIHSASNFTNTNNYFTSVPKNWMELLTNQEAQQWVSGWRLNADSVLWGGHKVFMVKPEEPFQPVKEATQL [F187W] | 0.0586 | 0.0758 | 0.0516 | 0.0552 | 0.118 | 0.0612 | 0.0685 | 0.0636 | 0.0396 | 0.0727 | 0.0931 | 0.0721 | – | 0.0896 | – | 0.0645 | 0.0776
